Results from patent publication EP4431525A1 (Anaveon AG, dated 2024).

T1: IL-2R on murine splenocytes (NK cells, CD8 T cells, Treg cells) (mouse, UniProt P01590 22-268; P16297 27-539; P34902 23-369)
T1 sequence (looked up) 1: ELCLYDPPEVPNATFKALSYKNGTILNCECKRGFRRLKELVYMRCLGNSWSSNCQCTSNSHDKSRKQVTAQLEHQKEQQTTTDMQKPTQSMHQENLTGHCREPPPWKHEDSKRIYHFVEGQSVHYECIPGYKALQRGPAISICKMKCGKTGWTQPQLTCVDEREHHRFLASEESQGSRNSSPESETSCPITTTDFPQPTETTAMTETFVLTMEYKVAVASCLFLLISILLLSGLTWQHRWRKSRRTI
T1 sequence (looked up) 2: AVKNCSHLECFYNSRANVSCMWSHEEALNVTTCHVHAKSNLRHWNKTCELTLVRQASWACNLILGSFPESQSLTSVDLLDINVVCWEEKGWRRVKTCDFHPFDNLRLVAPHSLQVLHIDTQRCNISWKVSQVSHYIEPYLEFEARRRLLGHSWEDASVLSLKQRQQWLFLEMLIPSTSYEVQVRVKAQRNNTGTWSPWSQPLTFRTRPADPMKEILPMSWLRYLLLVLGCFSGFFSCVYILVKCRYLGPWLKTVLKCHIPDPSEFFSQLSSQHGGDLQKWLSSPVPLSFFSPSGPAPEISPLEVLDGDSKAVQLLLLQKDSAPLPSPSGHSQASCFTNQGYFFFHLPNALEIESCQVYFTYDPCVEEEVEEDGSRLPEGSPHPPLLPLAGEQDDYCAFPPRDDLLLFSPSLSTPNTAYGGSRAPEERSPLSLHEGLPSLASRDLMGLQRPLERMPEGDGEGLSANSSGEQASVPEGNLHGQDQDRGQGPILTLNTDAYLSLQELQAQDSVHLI
T1 sequence (looked up) 3: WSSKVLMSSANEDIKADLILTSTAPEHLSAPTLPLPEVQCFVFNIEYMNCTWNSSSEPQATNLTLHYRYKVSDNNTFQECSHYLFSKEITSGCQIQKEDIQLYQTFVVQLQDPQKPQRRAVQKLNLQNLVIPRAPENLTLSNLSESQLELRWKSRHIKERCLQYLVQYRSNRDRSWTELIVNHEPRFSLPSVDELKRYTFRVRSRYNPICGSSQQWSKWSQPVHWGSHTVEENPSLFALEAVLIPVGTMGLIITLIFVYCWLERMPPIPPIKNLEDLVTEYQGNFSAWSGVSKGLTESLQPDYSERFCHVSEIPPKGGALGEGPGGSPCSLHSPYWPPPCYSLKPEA

T2: His-tagged recombinant CD25 (UniProt P01589 22-213, limits assumed)
T2 construct: also called IL-2R alpha chain
T2 sequence (looked up): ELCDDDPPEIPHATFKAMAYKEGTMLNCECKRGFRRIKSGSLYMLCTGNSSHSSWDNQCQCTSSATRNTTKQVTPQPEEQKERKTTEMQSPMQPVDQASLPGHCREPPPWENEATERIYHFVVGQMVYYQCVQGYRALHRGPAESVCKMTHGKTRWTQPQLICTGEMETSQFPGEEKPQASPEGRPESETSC

B1: QTY065 (other)
heavy: EVQLVQSGAEVKKPGESLKISCKGSGYAFTNYLIEWVRQMPGKGLEWMGVINPGSGGTNYNEKFKGQVTISADKSISTAYLQWSSLKASDTAMYYCARWRGEGYYAYFDVWGQGTTVTVSSASTKGPSVFPLAPSSKSTSGGTAALGCLVKDYFPEPVTVSWNSGALTSGVHTFPAVLQSSGLYSLSSVVTVPSSSLGTQTYICNVNHKPSNTKVDKRV[letters of human IgG1 Fc with changes left out]
light: AIRLTQSPSSFSASTGDRVTITCKASQSVDYGGGNFHLRPRDLISNINVIVLELKGSETTFMCEYADETATIVEFLNRWITFSQSIISTLTPTSSSTKKTQLQLEHLLLDLQMILNGINNYKNPKLTRMLTFKFYMPKKATELKHLQCLEEELKPLEEVLNLAQSKGGGGDSYMNWYQQKPGKAPKLLIYAASNLESGVPSRFSGSGSGTDFTLTISSLQSEDFATYYCQQSNEDPYTFGGGTKVEIKRTVAAPSVFIFPPSDEQLKSGTASVVCLLNNFYPREAKVQWKVDNALQSGNSQESVTEQDSKDSTYSLSSTLTLSKADYEKHKVYACEVTHQGLSSPVTKSFNRGEC
B2: BFC885 (other)
heavy: QVQLVESGGGVVQPGRSLRLSCAASGYTFSSYLIEWVRQAPGKGLEWVAVINPGSGGTNYADSVKGRFTISADKSKNTAYLQMNSLRAEDTAVYYCARWRGDGYYAYFDVWGQGTTVTVSSASTKGPSVFPLAPSSKSTSGGTAALGCLVKDYFPEPVTVSWNSGALTSGVHTFPAVLQSSGLYSLSSVVTVPSSSLGTQTYICNVNHKPSNTKVDKRV[letters of human IgG1 Fc with changes left out]
light: EIVLTQSPATLSVSPGERATLSCRASQSVSYGGGGSGGGGSGGGNFHLRPRDLISNINVIVLELKGSETTFMCEYADETATIVEFLNRWITFSQSIISTLTPTSSSTKKTQLQLEHLLLDLQMILNGINNYKNPKLTRMLTFKFYMPKKATELKHLQCLEEELKPLEEVLNLAQSKGGGGSGGGGSGGGGDSYMNWYQQKPGQAPRLLIYAASNLASGIPARFSGSGSGTEFTLTISSLQSEDAAVYYCQQSNEDPYTFGGGTKVEIKRTVAAPSVFIFPPSDEQLKSGTASVVCLLNNFYPREAKVQWKVDNALQSGNSQESVTEQDSKDSTYSLSSTLTLSKADYEKHKVYACEVTHQGLSSPVTKSFNRGECRTVAAPSVFIFPPSDEQLKSGTASVVCLLNNFYPREAKVQWKVDNALQSGNSQESVTEQDSKDSTYSLSSTLTLSKADYEKHKVYACEVTHQGLSSPVTKSFNRGEC
notes: Antibody B, IL-2CP in CDR-L1, linkers 13/14 AA

Key:
[1] = target: T1, IL-2R on murine splenocytes (NK cells, …); assay: cell-based or functional assay
[2] = target: T1, IL-2R on murine splenocytes (NK cells, …); assay: cell-based or functional assay; remark: listed apart in the source
[3] = target: T2, His-tagged recombinant CD25; assay: SPR, His-CD25 captured

Binder | EC50 pSTAT5 on CD8 cells (mouse splenocytes) [1] | EC50 pSTAT5 on NK cells (mouse splenocytes) [1] | EC50 pSTAT5 on Treg cells (mouse splenocytes) [1] | EC50 CD8 cells (pSTAT5, mouse splenocytes) [2] | EC50 NK cells (pSTAT5, mouse splenocytes) [2] | EC50 Treg cells (pSTAT5, mouse splenocytes) [2] | Kd [3]
B1 | 17.9 nM | 2.88 nM | 4.21 nM | 4.6 nM | 1.2 nM | 5.91 nM | 
B2 |  |  |  |  |  |  | 54.1 nM
